Out of some 410,000 compounds screened, about 6,400 (1.6%) were called active. The inconclusive results got no clear call from the source; some entries with a clear call stand among them for comparison. Calls come from the whole dose curve; as a rule, active = well fitted inhibition curve with a large enough effect; inconclusive = small, poorly fitted or top-dose-only effect; inactive = no such curve, though single readings can be large or run the other way. No potency is given beside an inconclusive call; the fits are too rough.
molecular target: Glucagon-like peptide 1 receptor (Homo sapiens) (UniProt P43220); assay: qHTS of GLP-1 Receptor Inverse Agonists (Inhibition Mode); conditions: HEK293 GLP-1R CRE-luciferase, luminescence, 24 h, GLP-1R form is constitutively active; activity change, negative = inhibition: at 38.3 µM (top of the series) unless noted; note: nearly all actives have a fitted effect of over 55% in size
Outline: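 Readout was luciferase luminescence, measured 12 min after detection reagent at room temperature. Beforehand, GLP-1R reporter HEK293 cells had sat 12 h, then received compounds for 24 hr at 37 deg C.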
% is set by controls: 0 for no effect and ±100 for the full control effect; potency is the fitted concentration of half-maximal effect; tags give direction and shape of the fitted curve.

UniProt P43220, sequence (P43220 whole entry, looked up): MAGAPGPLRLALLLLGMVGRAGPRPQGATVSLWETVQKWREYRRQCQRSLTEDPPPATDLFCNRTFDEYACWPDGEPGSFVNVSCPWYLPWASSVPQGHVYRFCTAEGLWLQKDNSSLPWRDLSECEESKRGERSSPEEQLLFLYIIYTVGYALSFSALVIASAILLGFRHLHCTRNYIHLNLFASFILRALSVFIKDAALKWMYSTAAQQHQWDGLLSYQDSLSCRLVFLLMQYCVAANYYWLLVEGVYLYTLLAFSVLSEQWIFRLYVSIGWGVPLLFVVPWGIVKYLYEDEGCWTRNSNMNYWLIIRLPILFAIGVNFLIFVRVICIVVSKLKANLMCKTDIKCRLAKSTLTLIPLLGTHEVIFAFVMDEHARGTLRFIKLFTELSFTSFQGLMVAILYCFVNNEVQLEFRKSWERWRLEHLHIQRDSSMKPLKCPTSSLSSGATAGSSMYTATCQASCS

**Q.** How did the “activity change, negative = inhibition” value turn out when COC(=O)c1ccc(NC(=S)Nc2ccc(O)cc2)cc1 was run?
**A.** The value was inactive: -14%.

**Q.** How did the “activity change, negative = inhibition” value turn out when COc1cc(CNc2ncnc3c2ncn3[C@H]2CN(Cc3ccc(Cl)cc3)C[C@@H](CO)O2)cc(OC)c1OC was run?
**A.** Its value is inactive: 7.52%.

**Q.** For Cc1ccc(SCC(=O)OCC(=O)N(CC(C)C)c2c(N)n(Cc3ccccc3)c(=O)[nH]c2=O)cc1C, which Potency is on record?
**A.** The Potency was inconclusive [inhibitor, single point].

**Q.** How did the “activity change, negative = inhibition” value turn out when COc1ccc(Cc2nc3ccc(C(=O)NCCc4cccc(C)n4)cc3o2)cc1 was run?
**A.** The value was inactive: 9.21%.

**Q.** With Cc1ccc(C)c(CSCc2nc3ccccc3[nH]2)c1 as the compound, how does the Potency read?
**A.** Its Potency is inconclusive [inhibitor, partial curve, poor fit].

**Q.** Which Potency does the source give for CC(C)CC1c2[nH]c3ccccc3c2CCN1C(=O)C1CCOCC1 (configuration not stated) here?
**A.** The Potency was inconclusive [inhibitor, partial curve, poor fit].

**Q.** With O=C(CNCc1ccc(Cl)cc1)Nc1ccc(C(=O)N2CCCCC2)cc1 as the compound, how does the Potency read?
**A.** The Potency was inconclusive [inhibitor, partial curve, poor fit].

**Q.** For Cc1ccc(C(=O)CC2(O)C(=O)N(C)c3ccc(Br)cc32)c(C)c1 (configuration not stated), which Potency is on record?
**A.** The Potency was inconclusive [inhibitor, partial curve, poor fit].

**Q.** How did the Potency turn out when COc1ccccc1N1CCN(C2CCCN(C(=O)c3oc(C)cc3C)C2)CC1 (configuration not stated) was run?
**A.** Its Potency is inconclusive [inhibitor, partial curve].

**Q.** How did the Potency turn out when Cc1ccc(C(c2nnnn2C2CCCC2)N2CCN(c3nc4ccccc4s3)CC2)cc1 (configuration not stated) was run?
**A.** Its Potency is inconclusive [inhibitor, partial curve, poor fit].

**Q.** COc1ccc(C(CNC(=O)c2cc3c(s2)CCC(C)C3)N2CCCC2)cc1 (configuration not stated) was tested. Which Potency did it give?
**A.** The Potency was inconclusive [inhibitor, partial curve].

**Q.** For O=C(c1ccccc1Sc1cccc2ccccc12)N1CCOCC1, which Potency is on record?
**A.** Its Potency is inconclusive [inhibitor, partial curve, poor fit].

**Q.** Which Potency does the source give for CN(Cc1ccccc1)C(=O)Cn1nnc(-c2ccccc2)c1COc1ccc2ccccc2c1 here?
**A.** Its Potency is inconclusive [inhibitor, single point].

**Q.** How did the Potency turn out when Cc1ccccc1S(=O)(=O)NC(=O)C1(C)CCN1C(=O)CC(c1ccccc1)c1ccccc1 (configuration not stated) was run?
**A.** The Potency was inconclusive [inhibitor, single point].

**Q.** Which Potency does the source give for Cc1ccc(S(=O)(=O)NCCC(=O)NCC(c2ccco2)N2CCCCC2)cc1C (configuration not stated) here?
**A.** Its Potency is inconclusive [inhibitor, single point].

**Q.** O=C(CNC(=O)c1ccc([N+](=O)[O-])cc1)N/N=C/c1c[nH]c2ccccc12 was tested. Which Potency did it give?
**A.** Its Potency is inconclusive [inhibitor, partial curve].

**Q.** Cc1ccc(C)c(C2NC(=O)c3ccccc3N2)c1 (configuration not stated) was tested. Which Potency did it give?
**A.** The Potency was inconclusive [inhibitor, full curve].

**Q.** Cc1ccc(NC(=S)N(CCCN2CCN(C)CC2)Cc2cccs2)cc1 was tested. Which activity change, negative = inhibition did it give?
**A.** The activity change, negative = inhibition was inactive: 3.32% [at 0.307 µM].

**Q.** How did the Potency turn out when CC(C)N(Cc1ccccc1)C(=S)Nc1ccc(OC(F)F)cc1 was run?
**A.** The Potency was inconclusive [inhibitor, partial curve].

**Q.** With Cc1ccccc1N(CC(=O)Nc1ccccc1C(=O)NCc1ccco1)S(=O)(=O)c1ccccc1 as the compound, how does the Potency read?
**A.** Its Potency is inconclusive [inhibitor, partial curve].

**Q.** For Nc1ccc(Nc2ccncc2)cc1, which “activity change, negative = inhibition” value is on record?
**A.** Its value is inactive: 18.3%.

**Q.** For Cc1ccc(NC(=O)Cn2nnc(-c3nc(-c4ccncc4)no3)c2N)cc1, which “activity change, negative = inhibition” value is on record?
**A.** Its value is inactive: 10.4%.

**Q.** How did the Potency turn out when O=C(NC(=S)NC1CCCCC1)c1ccc(Cl)cc1 was run?
**A.** The Potency was inconclusive [inhibitor, single point].

**Q.** With O=C(NCc1ccc(F)cc1)c1cc(C2CCCCN2C(=O)c2ccc3c(c2)CCO3)on1 (configuration not stated) as the compound, how does the Potency read?
**A.** The Potency was inconclusive [inhibitor, partial curve].

**Q.** How did the “activity change, negative = inhibition” value turn out when Cc1ccc(C(=O)O)cc1Nc1nc2ccccc2n2nnnc12 was run?
**A.** The value was inactive: 34.6%.

**Q.** CCc1ccc(OC2=NS(=O)(=O)c3ccccc32)cc1 was tested. Which “activity change, negative = inhibition” value did it give?
**A.** The value was inactive: -20%.

**Q.** Which Potency does the source give for Cc1cc2c(cc1C)/C(=N/NC(=O)c1ccccn1)CCC2 here?
**A.** Its Potency is inconclusive [inhibitor, partial curve, poor fit].

**Q.** With CCOc1ccc2nc(C)cc(Nc3ccccc3OCC)c2c1 as the compound, how does the Potency read?
**A.** Its Potency is inconclusive [inhibitor, single point].

**Q.** For C=CCNC(=O)c1ccsc1N, which “activity change, negative = inhibition” value is on record?
**A.** The value was inactive: -2.96%.

**Q.** O=C(Nc1ccc(S(=O)(=O)Nc2ncccn2)cc1)c1cccc(S(=O)(=O)N2CCOCC2)c1 was tested. Which “activity change, negative = inhibition” value did it give?
**A.** The value was inactive: -6.5%.

**Q.** How did the Potency turn out when Cn1cc(S(=O)(=O)N2CCCCCC2)cc1C(=O)N1CCN(c2cccc(Cl)c2)CC1 was run?
**A.** The Potency was inconclusive [inhibitor, single point].

**Q.** How did the Potency turn out when Cc1ccc(NC(=O)C2Cc3ccccc3CN2C(=O)c2ccccc2)cc1Cl (configuration not stated) was run?
**A.** Its Potency is inconclusive [inhibitor, partial curve, poor fit].

**Q.** For COCCNC(=S)N1CCC2CC1c1cc(-c3ccc4c(c3)OCO4)ccc12 (configuration not stated), which Potency is on record?
**A.** The Potency was inconclusive [inhibitor, single point].

**Q.** Which Potency does the source give for CCOc1ccc2nc(NC(=O)c3ccc(C)o3)sc2c1 here?
**A.** Its Potency is inconclusive [inhibitor, single point].

**Q.** O=c1c(-c2ccc3c(c2)OCCO3)coc2cc(OC3OC(CO)C(O)C(O)C3O)ccc12 (configuration not stated) was tested. Which “activity change, negative = inhibition” value did it give?
**A.** Its value is inactive: -0.45%.

**Q.** Cc1ccc(CNC(=O)CS(=O)Cc2nc(-c3ccccc3Cl)oc2C)cc1 (configuration not stated) was tested. Which Potency did it give?
**A.** Its Potency is inconclusive [inhibitor, single point].

**Q.** With COc1ccc(C(=O)N(C)C2CCCc3ccccc32)cc1OC1CCN(C(C)C)CC1 (configuration not stated) as the compound, how does the Potency read?
**A.** Its Potency is inconclusive [inhibitor, single point].

**Q.** With COc1ccc(C(NC(=O)C2CCN(CCc3ccccc3)CC2)c2ccccn2)cc1 (configuration not stated) as the compound, how does the Potency read?
**A.** The Potency was inconclusive [inhibitor, single point].

**Q.** How did the Potency turn out when C1=NN(c2ccccc2)C=NN1c1ccccc1 was run?
**A.** The Potency was inconclusive [inhibitor, single point].

**Q.** For CCc1ccc(NC(=O)C2CCN(S(=O)(=O)c3ccc4[nH]c5c(c4c3)CCCCC5)CC2)cc1, which Potency is on record?
**A.** Its Potency is inconclusive [inhibitor, partial curve, poor fit].

**Q.** How did the Potency turn out when O=[N+]([O-])c1ccc(N/N=C/c2ccccc2O)cc1 was run?
**A.** The Potency was inconclusive [inhibitor, partial curve, poor fit].

**Q.** CCn1c(SCC(=O)NCCc2ccc(Cl)cc2)nnc1-c1cccs1 was tested. Which Potency did it give?
**A.** Its Potency is inconclusive [inhibitor, single point].

Source: PubChem BioAssay AID624417 (National Center for Advancing Translational Sciences (NCATS), 2012)
